Test results reported in PubChem BioAssay AID686970 (National Center for Advancing Translational Sciences (NCATS), 2013).
The whole screen tested about 360,000 compounds, of which about 6,000 (1.7%) were called active. This list was built around the results that the source calls inconclusive (neither active nor inactive); the mix of calls is not that of the screen. Calls follow the shape of the dose curve; as a rule, active = well fitted cell-killing curve with a large enough effect; inconclusive = small, poorly fitted or top-dose-only effect, or effect the other way; inactive = flat fitted curve, though single readings scatter. No potency is given beside an inconclusive call; the fits are too rough.

Experiment: qHTS for induction of synthetic lethality in tumor cells producing 2HG: qHTS for the HT-1080-NT fibrosarcoma cell line;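 also: NT is the 2HG producing partner of a matched IDH1 knockdown line; nearly all actives have a fitted effect of over 55% in size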;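 as to activity, negative = less viability: 0% = DMSO-treated cells and -100% = media-only wells without cells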
Conditions: HT-1080-NT fibrosarcoma viability, CellTiter-Glo ATP luminescence, 48 h; activity, negative = less viability: at 46.1 µM (top of the series)
Procedure, shortened: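 Viability of the 2HG-overproducing fibrosarcoma line after 48 hours of compound exposure at 37 degrees C was determined by luminescence with CellTiter-Glo, and concentration-effect curves were then fitted and categorized.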
Potency is read from the fitted curve at half-maximal effect; tags tell the direction and shape of the fitted curve.

SMILES | Potency | activity, negative = less viability
COc1ccc2[nH]cc(CCN(C)C)c2c1 | inactive | 
O=C(CNC(=O)OCc1ccccc1)Nc1ccc(Br)cc1C(=O)c1ccccc1 | inconclusive [cytotoxic, single point] | 
C[C@@H]1CN([C@@H](C)CO)C(=O)CCCn2cc(nn2)CO[C@H]1CN(C)C(=O)Oc1cccc2ccccc12 | inactive | 
CNC(=S)N1CCn2cccc2C1c1cccnc1 (stereo not given) | inactive | 
Cc1cccc(N2C(=O)NC(=O)/C(=C\C=C\c3ccco3)C2=O)c1 | inconclusive [cytotoxic, single point] | 
CCOc1ccc(N2C(=O)CC(Sc3nc(C)cc(C)n3)C2=O)cc1 (stereo not given) | inconclusive [cytotoxic, single point] | 
O=C1CN=C(c2cccs2)c2c(sc3c2CCCC3)N1 | active: 11.2 µM | 
CCOc1cc(CNCCc2c[nH]c3ccccc23)cc(Cl)c1OC | active: 18.4 µM | 
CCOC(=O)C1(c2ccccc2)CCN(CCC(=O)Nc2cccc(Br)c2)CC1 | active: 18.4 µM | 
C1=C(c2c[nH]c3ccccc23)CCN(Cc2ccccc2)C1 | inconclusive [cytotoxic, single point] | 
COC(=O)C1=C(c2ccc(OC(F)(F)F)cc2)C[C@@H]2CC[C@H]1N2C(=O)NCC1CC1 | inconclusive [cytotoxic, single point] | 
CCOC(=O)[C@]12Cc3ccccc3[C@H]1N(CCC(=O)OC)C(=O)c1cc(OC)ccc12 | inconclusive [cytotoxic, single point] | 
CC(C)C[C@H]1C(=O)N2CCCC2[C@]2(O)O[C@](NC(=O)[C@@H]3C=C4c5cccc6[nH]cc(c56)CC4N(C)C3)(C(C)C)C(=O)N12 (stereo not given in full) | inactive | 
COc1cc(/C=C/c2nc3ccccc3c(=O)n2-c2ccc(O)cc2)ccc1O | active: 16.4 µM | 
O=C(O)COc1ccc(Cl)cc1Cl | inactive | 
COc1ccccc1OP(=O)(Nc1cccnc1)Oc1ccccc1OC | inconclusive [cytotoxic, single point] | 
COc1ccc(N2C(=O)/C(=C/C=C/c3ccccc3[N+](=O)[O-])C(=O)NC2=S)cc1 | inactive | 
COc1ccc(C(c2nnnn2-c2c(C)cccc2C)N2CCC3(CC2)C(=O)NCN3c2ccccc2)cc1 (stereo not given) | active: 23.1 µM | 
CN(C)[C@@H]1C(=O)C(C(N)=O)=C(O)[C@@]2(O)C(=O)C3=C(O)c4c(O)cccc4[C@@](C)(O)C3C[C@@H]12 (stereo not given in full) | inconclusive [cytotoxic, single point] | 
CC[C@@H](C(=O)[C@@H](C)[C@@H](O)[C@H](C)[C@@H]1O[C@@H]([C@@H](CC)C(=O)O)CC[C@@H]1C)[C@H]1O[C@]2(C=C[C@@H](O)[C@]3(CC[C@@](C)([C@H]4CC[C@](O)(CC)[C@H](C)O4)O3)O2)[C@H](C)C[C@@H]1C | active: 0.517 µM | 
COc1ccc(NC2Oc3cc4c(cc3C(c3cc(OC)c(OC)c(OC)c3)C2C)OCO4)cc1 (stereo not given) | inconclusive [cytotoxic, full curve] | 
O=c1[nH]sc2cc(F)ccc12 | inconclusive [cytotoxic, single point] | 
CC(C)CN1Cc2cc(N3CCCCC3)ccc2-n2nncc2C1 | inactive | 
CNC(=O)C[C@H]1CC[C@@H]2NC[C@H](O)COC[C@H]2O1 | inactive | 

SMILES | Potency | activity, negative = less viability
COc1ccc(CC2C(=O)NC(C)C(=O)N(C)C3C(=O)N(C)C(Cc4ccc(O)c(c4)Oc4ccc(cc4)C3O)C(=O)NC(C)C(=O)NC(C)C(=O)N2C)cc1 (stereo not given) | active: 0.461 µM | 
Cc1ccc(N)c(C(=O)c2ccc(Br)cc2)c1 | inactive | 
CCN(CC)c1ccc2c(cc1=O)[C@@H](NC)CCc1cc(OC)c(OC)c(OC)c1-2 | active: 1.3 µM | 
CCOC(=O)C(NS(=O)(=O)c1ccc(C)cc1)(C(F)(F)F)P(=O)(OCC(C)C)OCC(C)C (stereo not given) | inconclusive [cytotoxic, single point] | 
O=C(CN1CCN(C(=O)CNC(=O)c2ccc(-c3ccccc3)cc2)CC1)Nc1ccccc1Cl | inconclusive [cytotoxic, single point] | 
CSc1ncc(/C=C2/C(=O)NC(=O)N(c3ccc(Cl)cc3)C2=O)cn1 | inactive | 
COC(=O)C1=C(c2ccc(OC(F)(F)F)cc2)C[C@@H]2CC[C@H]1N2C(=O)N1CCOCC1 | inactive | 
CC(C)C1CN1CC(O)Cn1ccnc1[N+](=O)[O-] (stereo not given) | inconclusive [rising, single point] | 
COc1ccccc1C(=O)Nc1ccc2c(c1)CC1(C(=O)N(C)C(=O)N(C)C1=O)C1CCCN21 (stereo not given) | inactive | 
CNc1ccc2nc3ccccc3[n+](C)c2c1 | active: 20.6 µM | 
CCCCCCC(=O)N/N=C/c1c(O)n(CCc2ccccc2)c(=O)[nH]c1=O | inactive | 
CCCCn1c(O)c(C(C)=NCC2CCCO2)c(=O)[nH]c1=O (stereo not given) | inconclusive [cytotoxic, full curve, poor fit] | 
O=C1NC(=O)C(=Cc2ccc(-c3ccc(S(=O)(=O)N4CCOCC4)cc3)o2)C(=O)N1 | inactive | 
Cc1cc(C)cc(N2C(=O)NC(=O)/C(=C/c3cccn3-c3ccc(Cl)cc3)C2=O)c1 | inconclusive [cytotoxic, single point] | 
Cc1ccsc1-c1nc(CSCC(=O)N2CCC3(CC2)OCCO3)c(C)o1 | inactive | 
c1ccc(/N=C2\N=C(Nc3ccccn3)c3ccccc32)nc1 | inconclusive [cytotoxic, single point] | 
COc1ccc(C2SCC(=O)Nc3c2c(=O)[nH]n3C2CCCCCC2)cc1OC (stereo not given) | inactive | 
COc1ccc(CN2CCN(C(=O)COc3ccc4ccccc4c3)CC2)c(OC)c1 | inconclusive [cytotoxic, single point] | 
CC(=O)OC1C(=O)OCC23CCC4(C)OC4C2OC2CC(OC(=O)C=CC=CC(=O)OCCC1C)C3(C)C21CO1 (stereo not given) | active: 1.46 µM | 
CC1=CC2OC3CC4OC(=O)C=CC=CC(C(C)O)OCC(O)C5(C)OC5C(=O)OCC2(CC1O)C4(C)C31CO1 (stereo not given) | active: 0.366 µM | 
C=CCn1c(O)c(C=NC2CCN(Cc3ccccc3)CC2)c(=O)[nH]c1=O |  | inconclusive: 35.7%
O=c1[nH]c2ccccc2n1C1CCN(C(CCc2ccccc2)c2nnnn2C2CCCC2)CC1 (stereo not given) | inconclusive [cytotoxic, partial curve] | 
CC(CC(C#N)(c1ccccc1)c1ccccc1)N(C)C (stereo not given) | inconclusive [cytotoxic, partial curve] | 
CC1CCN(C(=O)N2c3ccccc3Sc3ccccc32)CC1 | inconclusive [cytotoxic, single point] | 

SMILES | Potency | activity, negative = less viability
CN1/C(=C\C=C2C(=O)NC(=O)NC2=O)C(C)(C)c2ccccc21 | inconclusive [cytotoxic, single point] | 
C[C@H]1[C@@H](OS(=O)(=O)O)C[C@@H]2C[C@H]([C@@H](O)c3cc(=O)[nH]c(=O)[nH]3)NC3=NC[C@H]1N32 | active: 2.06 µM | 
CC(Cc1ccccc1)NC(=O)Cc1ccc([N+](=O)[O-])cc1 (stereo not given) | inactive | 
COc1ccc(CN2Cc3cc(-c4ccc(OC)cc4)ccc3-n3nncc3C2)cc1 | inconclusive [cytotoxic, single point] | 
CC[C@H]1C2C[C@H]3[C@@H]4N(C)c5ccccc5C45C[C@H](C2[C@H]5O)N3[C@@H]1O (stereo not given in full) | inactive | 
COc1cc2c(cc1OC)-c1c3c(cc4c1[C@@H](C2)N(C)CC4)OCO3 | inconclusive [cytotoxic, single point] | 
CCOC(=O)c1c(C)n(Cc2ccc3c(c2)OCO3)c2ccc(O)cc12 | inactive | 
COC(=O)C1=C(c2ccc(F)cc2OCc2ccccc2)C[C@@H]2CC[C@H]1N2C(=O)N1CCCCC1 | inconclusive [cytotoxic, single point] | 
COc1ccc(OC)c(CN2CCN(C(=O)COc3cccc(C)c3)CC2)c1 | inactive | 
CC12CC3CC(C)(C1)CC(N)(C3)C2 | inconclusive [cytotoxic, partial curve] | 
O=C1C=CC2C3C(=O)N(c4ccccc4)C(=O)C3C1N2Cc1ccccc1 (stereo not given) | inconclusive [cytotoxic, partial curve] | 
Nc1c(C(=O)NCc2ccco2)c2nc3ccccc3nc2n1CCN1CCCCC1 | inconclusive [cytotoxic, single point] | 
COc1ccc(NP(=O)(Oc2ccc(Cl)cc2)Oc2ccc(Cl)cc2)cc1OC | inconclusive [cytotoxic, single point] | 
Cn1cccc1/C=C1\C(=O)NC(=O)N(Cc2ccccc2)C1=O | inconclusive [cytotoxic, full curve, poor fit] | 
Cc1ccc(OCC(=O)N2CCCC(N3CCN(c4ccc(F)cc4)CC3)C2)cc1 (stereo not given) | inactive | 
COc1ccc(C(O)c2ccccc2OP(=O)(N(C)C)N(C)C)cc1 (stereo not given) | inactive | 
CCCCCSc1cc(OC)c(CCN)cc1OC | inconclusive [cytotoxic, single point] | 
CN=C(SCc1cc2c(cc1Cl)OCO2)c1c(O)n(C)c(=O)n(C)c1=O | inactive | 
CCOC(=O)c1ccc(-[n+]2c(-c3ccccc3)cc(-c3ccccc3)cc2-c2ccccc2)cc1 | active: 18.4 µM | 
CCOC(=O)[C@]12Cc3cc(N(C)C)ccc3[C@H]1N(Cc1ccccc1)C(=O)c1ccccc12 | inactive | 
Cc1nc2cc(C(F)(F)F)ccc2n1C1CCN(Cc2nnnn2CCc2ccccc2)CC1 | active: 18.4 µM | 
CSc1ccc(C(=O)C2CCCN(Cc3cc4ccccc4[nH]3)C2)cc1 (stereo not given) | active: 23.1 µM | 
